Source: a compilation of properties of binary mixtures (doi:10.1016/j.jcis.2010.04.060)
The densities may have been worked out from excess volumes.

Assay: xn = mol fraction of the nth substance listed
Details: 101 kPa

CCCC[n+]1ccn(C)c1.N#C[S-] + CCCCCCO
mass density [kg/m3]
Details | x2 = 0.059 | x2 = 0.1569 | x2 = 0.2766 | x2 = 0.3568 | x2 = 0.5983 | x2 = 0.7512 | x2 = 0.904
298.15 K | 1060.1 | 1042.8 | 1019.8 | 1003.1 | 945.2 | 901.3 | 850.9
308.15 K | 1054.2 | 1036.8 | 1013.7 | 996.9 | 938.7 | 894.7 | –
318.15 K | – | 1030.8 | 1007.6 | 990.8 | 932.4 | 888 | 836.9
328.15 K | 1042.5 | 1025 | 1001.7 | 984.8 | 926.1 | 881.4 | 829.9
338.15 K | 1036.6 | 1019 | 995.7 | – | 919.7 | 874.7 | 822.6

CCCC[n+]1ccn(C)c1.N#C[S-] + CCCCCO
mass density [kg/m3]
Details | x2 = 0.0373 | x2 = 0.1246 | x2 = 0.2218 | x2 = 0.3458 | x2 = 0.4581 | x2 = 0.5783 | x2 = 0.6977 | x2 = 0.832
298.15 K | 1064.5 | 1051.1 | 1035 | 1012.2 | 988.6 | 959.3 | 925.3 | –
308.15 K | 1058.7 | 1045.2 | – | 1006.1 | – | 953 | – | –
318.15 K | – | 1039.1 | 1023 | 1000 | 976.1 | 946.5 | 912.1 | 866.3
328.15 K | 1047 | 1033.3 | 1017.1 | 994 | 970 | 940.2 | 905.6 | –
338.15 K | – | 1027.4 | – | 988 | – | – | – | 852.4

CCCC[n+]1ccn(C)c1.N#C[S-] + CCCCO
mass density [kg/m3]
Details | x2 = 0 | x2 = 0.0878 | x2 = 0.1903 | x2 = 0.329 | x2 = 0.5279 | x2 = 0.6716 | x2 = 0.8107 | x2 = 0.8827
298.15 K | – | 1058.4 | 1043.9 | 1022.1 | – | 943.2 | 894.6 | 864.5
308.15 K | 1063.9 | 1052.4 | – | 1016 | 975.7 | 936.6 | 887.6 | 857.3
318.15 K | – | 1046.5 | 1031.9 | 1010 | 969.4 | – | – | 850
328.15 K | 1052.2 | 1040.7 | 1026 | 1003.9 | 963.1 | 923.4 | 873.6 | 842.6
338.15 K | – | – | 1020 | 997.8 | 956.9 | 916.8 | – | 835.2

CCCCCCO + CCCC[n+]1ccn(C)c1.N#C[S-]
x1 = 1
Details | mass density [kg/m3]
308.15 K | 807.7
318.15 K | 800.4
328.15 K | 792.9
338.15 K | 785.2

CCCCCO + CCCC[n+]1ccn(C)c1.N#C[S-]
x1 = 1
Details | mass density [kg/m3]
298.15 K | 810.9
308.15 K | 803.5
318.15 K | 796
328.15 K | 788.3
338.15 K | 780.4

CCCCO + CCCC[n+]1ccn(C)c1.N#C[S-]
x1 = 1
Details | mass density [kg/m3]
298.15 K | 805.8
308.15 K | 798.1
318.15 K | 790.2
328.15 K | 782.2
338.15 K | 773.9
